The structures appear in SMILES notation. The whole screen tested about 50,000 compounds, of which about 800 (1.6%) showed an effect of 50% or more. The list shows a part of the results.

The target in this assay is Bcl-2-like protein 10 (Homo sapiens) (UniProt Q9HD36). As to the kind of experiment: TR3 peptide-Bcl-B binding displacers, biochemical primary FP assay, phenotype converters (AID 1240).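 Note: 0% = Bcl-B with tracer peptide and DMSO and 100% = tracer peptide lacking Bcl-B.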 To be noted: GST-Bcl-B / FITC-TR3 peptide fluorescence polarization; stronger effect = higher value; compound at 3.75 mg/L. Background: Polarisation of emitted light reports the rotation of a fluorescent probe.
Sequence of UniProt Q9HD36 (Q9HD36 whole entry, looked up): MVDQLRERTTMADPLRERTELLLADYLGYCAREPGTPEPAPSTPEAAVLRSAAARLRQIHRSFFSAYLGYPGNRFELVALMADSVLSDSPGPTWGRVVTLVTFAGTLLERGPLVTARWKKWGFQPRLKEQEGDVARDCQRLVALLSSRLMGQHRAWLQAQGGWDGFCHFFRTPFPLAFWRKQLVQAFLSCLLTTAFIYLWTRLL
As for `CCn1nnnc1-c1ccc(OC)c(S(=O)(=O)Nc2ccc(Br)cc2)c1`, the displacement was 58.3%. The same measure for `O=C1NC2=Nc3ccccc3SC(c3ccccc3)=C2C(c2ccc(O)cc2)N1` (stereo unspecified): 27.6%. The same measure for `O=C1NC(=O)N(c2ccccc2F)C(=O)/C1=C/c1ccc(I)o1`: 34.5%; for `c1cc(NCc2ccc3c(c2)OCO3)cc(-c2nc3ccccc3s2)c1`: -6%; for `CCOc1cc(/C=C2/SC(=S)N(C)C2=O)cc(Cl)c1OCCOc1ccccc1C`: 2.3%. The figure for `COc1cccc(OC)c1C(=O)Nc1sc(C)c(C)c1C(N)=O` is 10.1%. Regarding `Cc1ccc(OCC(=O)Nc2ccc3oc(-c4ccc(F)cc4)nc3c2)cc1C`, the displacement is -21%. The same measure for `Cc1cccc(Cn2cc(/C=C(\C#N)C(=O)Nc3ccc(F)cc3)c3ccccc32)c1`: 8%. The figure for `COC(=O)C1=NN(C(=O)c2ccccc2)C(O)(C(C)(C)C)C1` (stereo unspecified) is -3.6%; for `COc1ccc(OC)c2c(C)cc(C)nc12` it is 3.3%. As to `CN(C)CCCN1C(=O)CSC1c1ccc(Cl)cc1` (stereo unspecified), the displacement amounted to 0%. `COc1ccc(N2C(=O)C3C4C=CC(C4)C3C2=O)cc1` (stereo unspecified): the displacement was -0.8%.

Take `Oc1ccc(Br)cc1/C=N/Nc1cc(N2CCCC2)nc(N2CCCC2)n1`: the displacement worked out at 37.5%. The figure for `O=C(c1ccc(Cl)c(Cl)c1)N1CCN(c2ccc([N+](=O)[O-])c(N3CCOCC3)c2)CC1` is 8.5%; for `COC(=O)C1=C(C)N=c2s/c(=C\c3ccccc3F)c(=O)n2C1c1ccc(OC)cc1` (stereo unspecified) it is 19.7%. Consider `CCC(C)(C)C1CCc2[nH]nc(C(=O)NN)c2C1` (stereo unspecified), for which the displacement was -12%. The same measure for `CC(C)C(=O)Nc1ccc(NC(=O)c2ccco2)cc1`: -8.5%.

For `O=c1oc2cc(O)c([N+](=O)[O-])cc2cc1-c1csc(-c2ccc(Br)cc2)n1`, the displacement was -17.4%.

`CC(C)(C)c1cc(C(=O)N/N=C\c2ccncc2)n[nH]1`: the displacement was determined as 1.4%. The same measure for `CCOC(=O)C1=C(C)N=C2SCC(=O)N2C1c1cccc(OC)c1OC` (stereo unspecified): -5.2%; for `Nn1cnnc1N/N=C/C=C/c1ccccc1`: -7.2%. Turning to `COc1cccc2sc(NC(=O)c3cccc(Cl)c3)nc12`, the displacement is 13.2%. The figure for `CCc1nnc(NS(=O)(=O)c2ccc(NS(=O)(=O)c3ccccc3)cc2)s1` is 14.1%; for `O=C(Nc1ccc(F)c([N+](=O)[O-])c1)c1ccc2c(c1)OCCO2` it is 11.2%. The figure for `CC1(C)CC(=O)C2=C(C1)NC1=C(C(=O)CC(C)(C)C1)C2c1ccccc1OCc1ccccc1` is -0.4%; for `N#CCCN1CCN(c2cc(N3CCOCC3)c(F)cc2[N+](=O)[O-])CC1` it is -11%. The same measure for `Cc1csc(/C(C#N)=C/c2sccc2C)n1`: -12%; for `COc1ccc(C(=O)Nc2ccc3oc(-c4ccccc4Cl)nc3c2)cc1Br`: 1.2%; for `CC(=O)NNc1nc(-c2ccccc2)c2cc(Cl)ccc2n1`: -7.4%. For `Cc1ccc(N(Cc2ccc(C(=O)Nc3ccc(C)c(Cl)c3)cc2)S(C)(=O)=O)cc1C`, the displacement is -5.2%. The figure for `CC(CCC(=O)Nc1ccc(F)cc1)CC(=O)Nc1ccc(F)cc1` (stereo unspecified) is 2.7%; for `Cc1cccc(N2C(=O)/C(=C/c3ccc(Br)cc3)SC2=S)c1C` it is 9.2%. The same measure for `COC(=O)CN(c1c(C)cccc1C)S(C)(=O)=O`: 3.3%; for `Clc1ccccc1CSc1nnnn1-c1ccccc1`: 9.2%. With `COC(=O)C1=C(C)NC(=S)N(C(C)=O)C1c1ccc(Cl)cc1` (stereo unspecified), the displacement is 4.9%. Turning to `Cc1cccc(NC(=O)C(O)C(O)C(=O)Nc2cccc(C)c2)c1` (stereo unspecified), the displacement was -1%. The same measure for `c1ccc(Cc2nc(-c3ccncc3)no2)cc1`: 5.5%; for `Cc1ccc(C2CC(C(F)(F)F)n3nc(C(=O)NCc4cccs4)cc3N2)cc1` (stereo unspecified): 8.3%. The same measure for `COc1ccc(N=Cc2sccc2C)c([N+](=O)[O-])c1`: 8.1%; for `CCCC1=C(C(=O)OCC)C(c2ccc(OC)c(OC)c2)NC(=O)N1` (stereo unspecified): -7.7%; for `COc1cccc(/C=C2\SC(=S)N(C3CCCCC3)C2=O)c1O`: -3.3%. The figure for `COCCCN1C(=O)/C(=C\c2ccc(Br)cc2)C(C(=O)OC)=C1C` is -14.1%; for `O=C1CC(c2ccc(F)c(Br)c2)c2ccc3ccccc3c2N1` (stereo unspecified) it is -10.6%; for `CCC(Sc1nc2ccccc2s1)C(=O)Nc1cccc2ccccc12` (stereo unspecified) it is -2.9%.

On to `C/C(=N\N1C(=O)CN(Cc2ccccc2)C1c1ccc(Br)cc1)c1ccccc1` (stereo unspecified), for which the displacement is -4.2%. The figure for `O=c1c2c3c(sc2n2c(=S)[nH]nc2n1-c1ccccc1)CCCCC3` is -7%; for `Oc1c(Br)cc(/C=N/Nc2nnc3c(n2)[nH]c2ccccc23)c(Br)c1O` it is 48.1%; for `CC1=C(C(=O)Nc2cccc(Cl)c2C)C(c2ccc([N+](=O)[O-])cc2)NC(=S)N1` (stereo unspecified) it is 13.1%. The same measure for `COCCNC(=O)c1ccc(NC(C)=O)cc1`: 9.6%; for `O=C(Nc1ccc(Cl)c(-c2nc3ccccc3o2)c1)c1ccc2ccccc2c1`: -23.4%. Consider `Cc1cc(Cl)ccc1NC(=O)c1cccc(I)c1`, for which the displacement turned out to be 9.4%. The figure for `CCOC(=O)C(C)Oc1cc2oc(=O)cc(-c3ccccc3)c2cc1CC` (stereo unspecified) is 11%; for `O=C(c1ccc(Br)cc1)N1CCN(c2ccc(F)cc2)CC1` it is -8.7%.

Consider `CCCOc1ccc2c(C)cc(=O)oc2c1`, for which the displacement was found to be 1.2%. The figure for `O=C1c2cccc3cccc(c23)C(=O)N1CCS(=O)(=O)OCC(F)(F)F` is 7.8%. Consider `Cc1ccc(-c2noc(C3CCCCC3)n2)cc1`, for which the displacement was determined as 11.9%. The same measure for `O=C(COc1ccc(Cl)cc1)Nc1ccccc1[N+](=O)[O-]`: 20%; for `Cc1ccc(C)c(NC(=O)CSc2ccccn2)c1`: 15.7%; for `O=C(NCCOC(=O)c1ccccc1)c1ccc([N+](=O)[O-])cc1`: 11%. For the molecule `COC(=O)C1=C(C)NC(=O)CC1c1cccc(OC)c1OC` (stereo unspecified), the displacement was determined as 9.9%. With `CC1=NN(c2ccccc2)C(=O)/C1=C/c1cc(C)n(-c2cccnc2)c1C`, the displacement was -3.2%. The figure for `COc1ccc(NC(=O)Cc2nc3ccccc3[nH]2)cc1` is -6.7%; for `C1=CCC(/C=N/N=C(/c2ccccc2)C23CN4CN(CN(C4)C2)C3)CC1` (stereo unspecified) it is 0.9%. The same measure for `O=c1c2c(nc3cc(-c4cccs4)[nH]n13)CCC2`: 5.7%; for `Cc1cccc(N2C(=O)/C(=C/c3cc(C)n(C)c3C)C(=O)NC2=S)c1C`: 111%. The figure for `Cc1cc(C)c(C(=O)/C(=C/c2ccccc2)c2ccccc2)c(=O)[nH]1` is 6.6%; for `COc1ccc(S(=O)(=O)Nc2ccccc2C(F)(F)F)cc1` it is -6.4%; for `CCOc1ccc(C(=O)Nc2cc(C)ccn2)cc1Br` it is -1.9%. As to `COC(=O)C1=C(C)NC(=O)NC1c1ccc(OC)c(OC)c1OC` (stereo unspecified), the displacement worked out at 8.5%. The figure for `Cc1ccc(CC2CC(=O)N(c3ccc(F)cc3)C2=O)cc1` (stereo unspecified) is 11%; for `CCC(=O)N1N=C2c3ccc(OC)cc3CCC2C1c1ccc(N(C)C)cc1` (stereo unspecified) it is 9.1%; for `CCCOc1cccc(C(=O)Nc2ccccc2C(F)(F)F)c1` it is -5.3%. The figure for `COC(=O)c1ccccc1NC(=O)c1ccc(Cl)c([N+](=O)[O-])c1` is 9.4%; for `O=c1oc(-c2ccccc2Cl)nc2sc3c(c12)CCCCC3` it is 15%; for `COc1ccc(NC(=O)/C(C#N)=C/c2cn(Cc3ccccc3C#N)c3ccccc23)cc1` it is 3.2%.

Regarding `COC(=O)c1ccc(C(=O)OC)c(NC(=O)c2ccccc2OC)c1`, the displacement was -9.5%.

`O=C(NNC(=O)C1CCCO1)c1cccc(F)c1` (stereo unspecified): the displacement is -18.7%. The same measure for `Cc1ccc2ccc3cccc(S(=O)(=O)O)c3c2n1`: 6.3%.

On to `CN1C(=O)/C(=C/C=C/c2ccco2)SC1=S`, for which the displacement came out at 23.2%. The same measure for `O=C1C(=O)c2ccccc2C(O)=C1[N+](=O)[O-]`: 16.8%; for `O=C(COc1cc(Cl)ccc1Cl)Nc1ccc2c(c1)OCCO2`: 0.3%. On to `C=CCn1c(=N)n(CC(O)c2ccc(OCC)cc2)c2ccccc21` (stereo unspecified), for which the displacement is -9.5%. The same measure for `CC(C)(C)c1cc(C2=C(Cl)C(=O)c3ccccc3C2=O)cc(C(C)(C)C)c1O`: 6.9%. The same measure for `O=C(Cc1cccc2ccccc12)N/N=C/c1cc(I)cc(I)c1O`: 7.8%; for `COc1nccnc1NS(=O)(=O)c1ccc(NC(=O)c2ccc(Br)cc2)cc1`: -0.3%; for `CS(=O)(=O)NCCNc1ccc([N+](=O)[O-])cc1`: 6.3%. The same measure for `CCOc1ccccc1C(=O)Nc1cc(Cl)ccc1C`: -1.9%; for `CCCC(C)NS(=O)(=O)c1ccccc1[N+](=O)[O-]` (stereo unspecified): 3%. For the molecule `COc1ccc(Nc2cc(C)nc3c2ccc2ccccc23)cc1OC`, the displacement was -5.1%.

Regarding `O=C1NN(c2ccc(Cl)c(Cl)c2)C(=O)/C1=C/c1ccc2c(c1)OCO2`, the displacement was -4.4%. As to `O=C(Cc1ccccc1)NC(NC(=S)Nc1cc(Cl)ccc1Cl)C(Cl)(Cl)Cl` (stereo unspecified), the displacement stood at 15.1%. With `COc1ccc(OCCCCOc2ccc(Cl)c(C)c2)cc1`, the displacement came out at 17.4%.

In the case of `O=C(NCCO)c1ccc(-c2nnc(N3CCOCC3)c3ccccc23)cc1`, the displacement stood at 2.8%.

Take `Cc1ccc(Cl)cc1NC(=O)C1CC(=O)N(c2cccc([N+](=O)[O-])c2)C1` (stereo unspecified): the displacement is -16.2%.

`CCOc1ccc(Nc2ncnc3c2cnn3-c2ccccc2)cc1`: the displacement was -2.1%. As for `CC(=O)C1=C(Nc2ccc(Br)cc2)CC(C)(O)C(C(C)=O)C1c1ccc([N+](=O)[O-])cc1` (stereo unspecified), the displacement was -12.7%.

Turning to `CCN(CC)CCSc1nc2sc3c(c2c(=O)n1-c1ccc(C)cc1)CCCC3`, the displacement is -6.5%. The same measure for `Cc1ccc(S(=O)(=O)NCCOc2ccccc2)cc1[N+](=O)[O-]`: 12.5%. With `CS(=O)(=O)N1CCN(Cc2ccccn2)CC1`, the displacement was -24.7%. The figure for `Nc1ccc(C(=O)Nc2cccc3ccccc23)cc1` is -4.6%; for `COc1ccc(/C=C2\SC(=O)N(CCC(=O)Nc3ccccc3)C2=O)cc1OC` it is 40.2%; for `CC1(C)Cc2c(sc3[nH]c(=O)n(-c4ccccc4)c(=O)c23)CO1` it is -11.2%. The figure for `COc1ccc(N(CC(=O)Nc2ccc3ccccc3c2)S(=O)(=O)c2ccccc2)cc1` is 11.2%. The same measure for `CCOC(=O)C1C(=O)C=C(c2ccc(C)cc2)CC1c1ccccc1` (stereo unspecified): -9.4%; for `Cc1ccc(N=Cc2c(O)ccc3ccccc23)nc1`: 38.1%; for `Cc1ccccc1NC(=O)/C(=C\c1ccccc1Cl)NC(=O)c1ccccc1`: 0.8%. As for `Cc1ccc(S(=O)(=O)N2CCN(CCNC(=O)C(=O)Nc3ccc(Cl)cc3)CC2)cc1`, the displacement was 8%. The figure for `CCOC(=O)c1sc(NC(=O)c2ccncc2)nc1C` is 4.1%; for `Cc1ccc(/C=C/C(=O)Nc2ccc(F)cc2)o1` it is 7.5%; for `c1ccc(-n2c(SCc3ccncc3)nnc2-c2ccco2)cc1` it is -5.6%.

As to `CCc1cc(C)cc(OCCOc2cccc(/C=C3/SC(=S)N(C)C3=O)c2)c1`, the displacement worked out at 15.9%.

These data come from PubChem BioAssay AID1240 (Sanford-Burnham Center for Chemical Genomics, 2008).
